Reference: PubChem BioAssay AID485294 (National Center for Advancing Translational Sciences (NCATS), 2010)
The whole screen tested about 370,000 compounds, of which about 150 (0.041%) were called active. This list was built around the results that the source calls inconclusive (neither active nor inactive); the mix of calls is not that of the screen. The call rests on the fitted dose curve; in most records, active means well fitted inhibition curve with a large enough effect; inconclusive means small, poorly fitted or top-dose-only effect; inactive means flat fitted curve, though single readings scatter. Potencies of inconclusive entries are left out as doubtful fits.

target: Beta-lactamase (Escherichia coli (strain K12)) (UniProt P00811); assay: qHTS Inhibitors of AmpC Beta-Lactamase (assay with detergent); conditions: AmpC hydrolysis of nitrocefin, absorbance 480 nm, 0.01% Triton; activity change, negative = inhibition: at 114 µM (top of the series); further: nearly all actives have a fitted effect of over 25% in size;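 on activity change, negative = inhibition: 0% = no-compound wells and -100% = no-enzyme wells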
Method in brief: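 AmpC (5.3 nM in the dispensed reagent) in 20 mM phosphate pH 7.0 with 0.01% (detergent screen) or 0.0001% Triton X-100 was preincubated with compounds for 15 min at room temperature. Nitrocefin was then added from an 800 uM solution, and hydrolysis was followed at 480 nm.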
Potency means the concentration at half of the fitted maximal effect; tags describe the fitted curve by direction and shape.

UniProt P00811, sequence (P00811 whole entry, looked up): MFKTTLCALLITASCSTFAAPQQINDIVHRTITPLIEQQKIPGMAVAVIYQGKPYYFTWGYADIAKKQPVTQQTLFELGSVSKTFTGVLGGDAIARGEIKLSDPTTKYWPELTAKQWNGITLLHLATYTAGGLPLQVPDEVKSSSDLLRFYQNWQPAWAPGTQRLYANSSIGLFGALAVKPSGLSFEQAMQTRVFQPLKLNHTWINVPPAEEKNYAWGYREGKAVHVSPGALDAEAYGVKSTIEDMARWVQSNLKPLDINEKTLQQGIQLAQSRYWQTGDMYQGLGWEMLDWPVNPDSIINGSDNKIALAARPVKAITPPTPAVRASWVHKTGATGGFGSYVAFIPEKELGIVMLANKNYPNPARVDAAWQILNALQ

| Structure (SMILES) | activity change, negative = inhibition | Potency |
| --- | --- | --- |
| Cc1ccc(Cn2c(=O)c3cccnc3n(CC(=O)Nc3cc(Cl)ccc3C)c2=O)cc1 | inactive: 0.0071% | – |
| COC(=O)c1cc(-c2ccc(Cl)cc2Cl)n[nH]1 | – | inconclusive [inhibitor, partial curve] |
| Cc1cc2oc(=O)cc(-c3cc4ccccc4o3)c2cc1OC(=O)N(C)C | inactive: -1.34% | – |
| CN1CCN(c2ccc(NC(=O)COc3ccccc3)cc2Cl)CC1 | inactive: -9.32% | – |
| CCCCNC(=O)Nc1ccc(C(O)(C(=O)OC)C(F)(F)F)cc1 (stereo not drawn) | – | inconclusive [inhibitor, full curve, poor fit] |
| O=C(Nc1cccs1)Nc1ccccc1Br | inactive: 0.085% | – |
| Cc1ccc(CCC(=O)Nc2ccccc2C(=O)O)o1 | inactive: 1.53% | – |
| Cc1ccc(S(=O)(=O)N(C)C)cc1NC(=O)CSc1nc2ccccc2[nH]1 | – | inconclusive [inhibitor, partial curve] |
| Cc1ccc(CNC(=O)CN2c3cccc4cccc(c34)S2(=O)=O)cc1 | – | inconclusive [inhibitor, partial curve, poor fit] |
| O=C(CSc1nc2c(c(C(F)(F)F)n1)CCc1ccccc1-2)NCc1ccc(F)cc1 | – | inconclusive [inhibitor, partial curve, poor fit] |
| Cc1sc2nc(CSc3cccc(C(F)(F)F)c3)[nH]c(=O)c2c1C | – | inconclusive [inhibitor, partial curve, poor fit] |
| CCn1cc(Br)c(C(=O)Nc2sc3c(c2C(N)=O)CCCC3)n1 | inactive: 3.16% | – |
| COc1ccc(-c2oc3ncn4nc(Cc5ccccc5)nc4c3c2-c2ccc(OC)cc2)cc1 | – | inconclusive [inhibitor, single point] |
| COc1ccc(CCNC(=O)COc2cccc(-n3cnnn3)c2)cc1 | – | inconclusive [inhibitor, partial curve, poor fit] |
| CCN(CC)S(=O)(=O)c1cccc(C(=O)OCc2cc(=O)n3nc(C)sc3n2)c1 | inactive: 0.592% | – |
| N#CCSc1nc2ccccc2c2nc3ccccc3n12 | inactive: -5.34% | – |
| CC(=O)N1CCc2c(sc3c2c(=O)n(-c2ccc(C)cc2)c(=O)n3Cc2ccccc2C)C1 | inactive: -4.06% | – |
| Cc1ccc(NC(=O)C2COc3ccccc3O2)cc1S(=O)(=O)N1CCCCC1 (stereo not drawn) | inactive: 9.36% | – |
| O=C(O)c1ccc2c(=O)n3c(nc2c1)/C(=C/c1ccccc1OC(F)F)CC3 | inactive: 4.53% | – |
| CNC(=O)n1ccc(C(=O)N2CCCCC2)n1 | – | inconclusive [inhibitor, full curve, poor fit] |
| CC(=O)NCc1nc2ccccc2n1Cc1ccccc1C | – | inconclusive [inhibitor, partial curve] |
| CCCC(=O)c1ccc(N2CCN(C(=O)c3ccccc3)CC2)c(F)c1 | inactive: 6.12% | – |
| CCc1ccc(-c2cc3c(=O)n(CC(=O)NCCCN4CCN(CC)CC4)nc(C)n3n2)cc1 | – | inconclusive [inhibitor, single point] |
| Cc1ccc2cc(/C=N/NC(=O)[C@H](C)NC(=O)OC(C)(C)C)c(Cl)nc2c1 | inactive: -7.12% | – |
| CN(C)c1cccc2c(/C=N/O)ccc(N(C)C)c12 | – | inconclusive [inhibitor, full curve] |

| Structure (SMILES) | activity change, negative = inhibition | Potency |
| --- | --- | --- |
| COc1ccc(C)cc1NC(=O)n1ncc2cc(Cl)ccc21 | inactive: 2% | – |
| Cc1ccc2oc(=O)n(CCNC(=O)Nc3ccc(Cl)cc3)c2c1 | inactive: 20.7% | – |
| Cc1cc2occ(CC(=O)N(C)CC(=O)Nc3c(C)cccc3C)c2cc1C | – | inconclusive [inhibitor, single point] |
| CN1CC(=O)N=C1N | – | inconclusive [inhibitor, full curve] |
| CCn1c(SCC(=O)NNC(=O)c2ccco2)nnc1-c1ccco1 | – | inconclusive [inhibitor, single point] |
| CCc1cc2c(=O)[nH]c(COC)nc2s1 | – | inconclusive [inhibitor, full curve, poor fit] |
| CC(/C=C1\SC(=S)N(NC(=O)c2ccc(O)cc2)C1=O)=C\c1ccccc1 | – | inconclusive [inhibitor, full curve, poor fit] |
| CCCCOC(=O)Nc1ccc(S(=O)(=O)Nc2cc(C)nc(C)n2)cc1 | – | inconclusive [inhibitor, full curve, poor fit] |
| CS(=O)(=O)c1ccc(C(=O)OCC(=O)N(CCc2ccccc2)Cc2ccccc2)cc1 | inactive: -12.8% | – |
| CC(=O)C1=C(S(=O)(=O)c2ccc(C)cc2)CS(=O)(=O)C1 | inactive: 1.79% | – |
| CCOC(=O)Nc1ccc2c(c1)N(C(=O)CN1CCN3CCCC3C1)c1ccccc1CC2 (stereo not drawn) | – | inconclusive [inhibitor, partial curve, poor fit] |
| CCSc1nncn1/N=C/c1ccc(OC)c(OC)c1 | – | inconclusive [inhibitor, full curve, poor fit] |
| O=C(NS(=O)(=O)Oc1ccc(F)cc1F)OC[C@@H]1CCCN2CCCCC12 (stereo partly drawn) | – | inconclusive [inhibitor, full curve, poor fit] |
| O=c1[nH]c2c(cc1CNCCN1CCOCC1)c(-c1cccc(F)c1)nn2-c1ccccc1 | – | inconclusive [inhibitor, partial curve] |
| CCn1ncc(CNC(=O)c2cccc([N+](=O)[O-])c2)c1C | inactive: 5.1% | – |
| COc1ccccc1/C=C1/C(=O)ON=C1C | inactive: 0.549% | – |
| Cc1ccc([N+](=O)[O-])c(OCc2ncc(Cl)n2C)c1 | inactive: -12.4% | – |
| CCOC(=O)c1ccc(NC(=O)NCc2ccc(OC)cc2)cc1 | inactive: -12.1% | – |
| O=C(CSc1nc(-c2ccccc2)nc2ccccc12)Nc1nccs1 | – | inconclusive [inhibitor, partial curve] |
| Cc1cnc(C(=O)OCC(=O)Nc2sc3c(c2C#N)CCC3)cn1 | – | inconclusive [inhibitor, full curve, poor fit] |
| Cn1c(=O)c2c(nc(CN3CCN(Cc4ccccc4)CC3)n2Cc2cccc(Cl)c2)n(C)c1=O | inactive: 1.85% | – |
| COc1ccc(C(=O)Sc2nncc3ccccc23)cc1 | – | inconclusive [inhibitor, partial curve, poor fit] |
| O=C(NCCN1CCCC1)c1ccc(Br)cc1 | – | inconclusive [inhibitor, partial curve, poor fit] |
| C/C(=N\NC(=O)Cn1nc(C)c(Br)c1C)c1cccs1 | – | inconclusive [inhibitor, single point] |
| COc1ccc(-c2nn(-c3ccccc3)cc2C(=O)O)cc1 | – | inconclusive [inhibitor, full curve, poor fit] |

| Structure (SMILES) | activity change, negative = inhibition | Potency |
| --- | --- | --- |
| CCN1CCN(Cc2nc3c(c(=O)n(C)c(=O)n3C)n2CCCc2ccccc2)CC1 | – | inconclusive [inhibitor, full curve, poor fit] |
| COc1cc(C(=O)CCN2CCC(c3ccccc3)C2)cc(OC)c1OC (stereo not drawn) | inactive: -18.6% | – |
| CC(=O)Nc1ccc(NC(=O)C(C)Sc2nc3ccccc3c(=O)n2Cc2ccco2)cc1 (stereo not drawn) | – | inconclusive [inhibitor, full curve, poor fit] |
| CCCn1c(N)c(N(CCOC)C(=O)c2cccc(C(F)(F)F)c2)c(=O)[nH]c1=O | inactive: 1.82% | – |
| CCOc1cc(/C=C2\N=C(SCC)SC2=O)cc([N+](=O)[O-])c1OC(C)=O | – | inconclusive [inhibitor, partial curve, poor fit] |
| CCn1c(SCC(=O)N2CCCCC2)nnc1-c1ccc(S(=O)(=O)N2CCN(C)CC2)cc1 | – | inconclusive [inhibitor, full curve] |
| COc1ccc(CN2CCNC(=O)C2CC(=O)NCC2CCOCC2)cc1C (stereo not drawn) | – | inconclusive [inhibitor, full curve, poor fit] |
| O=C(CN1C(=O)/C(=C2\SC(=S)N(CCS(=O)(=O)O)C2=O)c2ccccc21)Nc1cccc(Br)c1 | – | inconclusive [inhibitor, partial curve, poor fit] |
| Cc1cc(F)ccc1NC(=O)CCn1nc(C)c(S(=O)(=O)N2CCCCC2)c1C | inactive: -2.44% | – |
| CCC(SC1=N/C(=C/c2ccccc2)C(=O)N1c1ccccc1)C(=O)Nc1cc(C)on1 (stereo not drawn) | inactive: -14.2% | – |
| COc1ccc(N2CCC(CNC(=O)Nc3ccc(OC)cc3OC)C2)cc1 (stereo not drawn) | inactive: 0.995% | – |
| CS(=O)(=O)N(Cc1ccccc1)c1ccc(C(=O)Nc2ccc(Cl)cc2)cc1 | inactive: 15.3% | – |
| COc1ccc(C=O)cc1OS(=O)(=O)c1ccccc1[N+](=O)[O-] | – | inconclusive [inhibitor, full curve, poor fit] |
| Cc1cccc(-n2cnc3cc(C(=O)N4CCc5ccccc54)ccc32)c1 | – | inconclusive [inhibitor, partial curve, poor fit] |
| Cc1ccc(N=C(N)N=C(N)N)cc1 | inactive: -0.236% | – |
| CC(=O)c1ccc(N2CCN(C(=S)Nc3cc(C)ccc3C)CC2)cc1 | inactive: -1.08% | – |
| CC(C)c1ccccc1NC(=O)COC(=O)c1cc([N+](=O)[O-])ccc1N1CCOCC1 | – | inconclusive [inhibitor, full curve, poor fit] |
| COC(=O)c1cn(CC(=O)N2C(C)CCCC2C)c2ccccc12 (stereo not drawn) | – | inconclusive [inhibitor, single point] |
| COc1cccc(OC)c1OCCCSc1nc(C)cc(=O)[nH]1 | – | inconclusive [inhibitor, single point] |
| Cc1cc(C)c(OCCOCCn2c(-c3ccc(Cl)cc3)nc3ccccc3c2=O)c(C)c1 | inactive: 1.32% | – |
| CCOc1ccccc1C(=O)N1CCC(c2nc3ccccc3o2)CC1 | inactive: -1.93% | – |
| CSc1nc(SCCO)c2sc3nc(-c4ccco4)c4c(c3c2n1)CC(C)(C)OC4 | inactive: -12.9% | – |
| COc1ccc(OC)c(NC(=O)CC(=O)Nc2ccc3nc4n(c(=O)c3c2)CCCCC4)c1 | inactive: 15.4% | – |
